Laboratory results taken from PMC5651818, “VPS18 recruits VPS41 to the human HOPS complex via a RING–RING interaction” (Biochemical Journal, 2017).
No constants are given. Whether binding was seen depends on the method and setting. In cells and extracts the contact can be indirect. Some entries that bind do so weakly or less than the wild type. Where a sequence is shown, tags or fusion partners need not be part of it.

T1: EGFP-tagged full-length VPS41 (human) (UniProt P49754)
T1 sequence: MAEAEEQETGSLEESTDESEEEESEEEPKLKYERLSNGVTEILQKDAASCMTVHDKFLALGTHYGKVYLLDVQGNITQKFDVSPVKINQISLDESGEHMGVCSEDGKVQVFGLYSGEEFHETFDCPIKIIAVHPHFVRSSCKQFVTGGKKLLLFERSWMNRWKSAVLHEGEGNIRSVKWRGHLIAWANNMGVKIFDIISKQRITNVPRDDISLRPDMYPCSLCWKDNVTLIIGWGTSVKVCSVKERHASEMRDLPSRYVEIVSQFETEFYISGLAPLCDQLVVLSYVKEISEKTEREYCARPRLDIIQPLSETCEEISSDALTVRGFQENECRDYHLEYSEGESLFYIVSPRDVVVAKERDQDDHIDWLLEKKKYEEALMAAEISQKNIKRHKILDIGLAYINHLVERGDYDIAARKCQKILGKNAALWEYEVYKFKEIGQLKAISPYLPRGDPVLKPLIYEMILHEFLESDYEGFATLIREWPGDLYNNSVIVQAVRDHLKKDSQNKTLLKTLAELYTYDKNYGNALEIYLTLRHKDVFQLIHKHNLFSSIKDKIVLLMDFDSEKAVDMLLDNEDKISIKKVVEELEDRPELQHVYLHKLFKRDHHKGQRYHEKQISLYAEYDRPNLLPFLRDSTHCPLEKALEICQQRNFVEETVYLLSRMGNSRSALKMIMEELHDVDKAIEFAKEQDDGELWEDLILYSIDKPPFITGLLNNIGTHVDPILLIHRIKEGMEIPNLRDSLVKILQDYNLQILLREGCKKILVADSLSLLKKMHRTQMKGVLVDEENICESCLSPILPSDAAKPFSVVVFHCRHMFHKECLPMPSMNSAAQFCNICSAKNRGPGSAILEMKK

T2: EGFP-tagged VPS8 RING short construct (human) (UniProt Q8N3P4)
T2 sequence: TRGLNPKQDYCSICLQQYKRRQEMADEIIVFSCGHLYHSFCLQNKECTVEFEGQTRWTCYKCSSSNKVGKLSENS

T3: EGFP-tagged VPS8 RING long construct (human) (UniProt Q8N3P4)
T3 sequence: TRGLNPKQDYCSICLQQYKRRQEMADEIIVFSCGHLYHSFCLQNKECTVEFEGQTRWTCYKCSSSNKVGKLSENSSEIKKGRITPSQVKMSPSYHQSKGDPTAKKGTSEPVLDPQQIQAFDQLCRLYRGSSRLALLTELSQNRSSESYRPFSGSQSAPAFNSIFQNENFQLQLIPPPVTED

T4: EGFP-tagged VPS41 RING domain (residues 778–854) (human) (UniProt P49754)
T4 sequence: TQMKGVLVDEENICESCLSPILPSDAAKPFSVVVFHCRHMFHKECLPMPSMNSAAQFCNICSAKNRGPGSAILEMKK

T5: EGFP-tagged VPS18 extended construct (residues 752–973) (human) (UniProt Q9P253)
T5 sequence: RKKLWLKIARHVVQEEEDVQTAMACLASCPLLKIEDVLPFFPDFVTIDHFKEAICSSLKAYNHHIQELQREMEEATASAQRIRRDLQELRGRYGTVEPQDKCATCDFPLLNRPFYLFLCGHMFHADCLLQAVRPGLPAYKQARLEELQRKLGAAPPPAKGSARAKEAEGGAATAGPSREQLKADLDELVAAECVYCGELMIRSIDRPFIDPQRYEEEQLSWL

T6: EGFP-tagged VPS18 N-terminal construct (residues 1–841) (human) (UniProt Q9P253)
T6 sequence: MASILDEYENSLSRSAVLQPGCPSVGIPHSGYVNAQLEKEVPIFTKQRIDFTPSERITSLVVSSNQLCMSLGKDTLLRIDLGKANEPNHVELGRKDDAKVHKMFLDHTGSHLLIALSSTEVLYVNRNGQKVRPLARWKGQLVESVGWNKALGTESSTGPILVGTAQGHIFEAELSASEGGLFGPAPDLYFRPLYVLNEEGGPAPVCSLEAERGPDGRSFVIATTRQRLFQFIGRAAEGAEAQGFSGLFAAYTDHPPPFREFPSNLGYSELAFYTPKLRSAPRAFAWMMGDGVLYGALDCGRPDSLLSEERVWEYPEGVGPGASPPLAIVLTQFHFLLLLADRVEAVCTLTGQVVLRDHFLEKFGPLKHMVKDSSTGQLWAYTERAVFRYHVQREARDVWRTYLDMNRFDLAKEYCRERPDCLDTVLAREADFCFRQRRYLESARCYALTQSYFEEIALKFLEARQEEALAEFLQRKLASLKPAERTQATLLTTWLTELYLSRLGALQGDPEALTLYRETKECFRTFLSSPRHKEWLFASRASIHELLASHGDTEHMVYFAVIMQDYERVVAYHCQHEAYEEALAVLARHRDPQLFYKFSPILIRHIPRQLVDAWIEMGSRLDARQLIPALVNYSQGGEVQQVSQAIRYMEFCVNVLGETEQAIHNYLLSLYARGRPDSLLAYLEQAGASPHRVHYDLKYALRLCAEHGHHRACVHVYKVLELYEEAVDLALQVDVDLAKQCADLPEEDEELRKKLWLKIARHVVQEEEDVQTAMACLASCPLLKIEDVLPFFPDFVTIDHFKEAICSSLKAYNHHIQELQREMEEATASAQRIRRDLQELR

T7: EGFP-tagged full-length VPS18 (1–973) (human) (UniProt Q9P253)
T7 sequence: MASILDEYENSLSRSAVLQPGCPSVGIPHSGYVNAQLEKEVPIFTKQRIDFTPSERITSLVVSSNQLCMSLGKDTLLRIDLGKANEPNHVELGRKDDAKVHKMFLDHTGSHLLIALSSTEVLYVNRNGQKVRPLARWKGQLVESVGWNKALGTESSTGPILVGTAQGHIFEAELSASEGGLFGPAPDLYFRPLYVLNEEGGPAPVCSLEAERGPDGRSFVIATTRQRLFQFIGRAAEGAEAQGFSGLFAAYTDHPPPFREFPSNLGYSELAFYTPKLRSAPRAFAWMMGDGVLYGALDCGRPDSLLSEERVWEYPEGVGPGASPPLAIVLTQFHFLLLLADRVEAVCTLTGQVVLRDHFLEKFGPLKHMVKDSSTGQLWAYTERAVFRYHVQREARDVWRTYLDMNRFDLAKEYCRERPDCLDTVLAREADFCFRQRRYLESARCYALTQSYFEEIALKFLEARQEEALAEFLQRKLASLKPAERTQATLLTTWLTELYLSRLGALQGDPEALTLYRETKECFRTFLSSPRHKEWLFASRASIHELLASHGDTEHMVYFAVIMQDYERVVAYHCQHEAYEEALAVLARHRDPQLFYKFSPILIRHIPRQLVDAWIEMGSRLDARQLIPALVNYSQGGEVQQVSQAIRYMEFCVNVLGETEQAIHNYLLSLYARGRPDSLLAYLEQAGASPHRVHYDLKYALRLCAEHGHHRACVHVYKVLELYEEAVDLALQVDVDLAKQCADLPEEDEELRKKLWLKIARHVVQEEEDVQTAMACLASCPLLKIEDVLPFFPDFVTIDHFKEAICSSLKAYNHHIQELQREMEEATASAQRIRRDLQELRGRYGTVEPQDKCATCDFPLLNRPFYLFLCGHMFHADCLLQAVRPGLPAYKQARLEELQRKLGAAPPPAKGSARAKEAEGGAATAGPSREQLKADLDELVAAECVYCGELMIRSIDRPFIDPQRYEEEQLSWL

T8: EGFP-tagged VPS18 RING construct (residues 842–973) (human) (UniProt Q9P253)
T8 sequence: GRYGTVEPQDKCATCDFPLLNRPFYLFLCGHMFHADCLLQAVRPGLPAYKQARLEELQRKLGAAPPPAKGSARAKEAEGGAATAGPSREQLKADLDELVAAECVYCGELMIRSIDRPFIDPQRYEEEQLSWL


Experiments:
Experiment in all cases: co-IP; HEK293T cells transfected with EGFP-tagged constructs; GFP-TRAP beads; lysis in 10 mM Tris-HCl (pH 7.5), 150 mM NaCl, 0.5 mM EDTA, 0.5% NP-40; immunoblot for endogenous subunits
[1] = target: T1, EGFP-tagged full-length VPS41 (human)
[2] = target: T2, EGFP-tagged VPS8 RING short construct (human)
[3] = target: T3, EGFP-tagged VPS8 RING long construct (human)
[4] = target: T4, EGFP-tagged VPS41 RING domain (residues 778–854) (human)
[5] = target: T5, EGFP-tagged VPS18 extended construct (residues 752–973) (human)
[6] = target: T6, EGFP-tagged VPS18 N-terminal construct (residues 1–841) (human)
[7] = target: T7, EGFP-tagged full-length VPS18 (1–973) (human)
[8] = target: T8, EGFP-tagged VPS18 RING construct (residues 842–973) (human)

binding [1]	binding [2]	binding [3]	binding [4]	binding [5]	binding [6]	binding [7]	binding [8]	Binder
binds	no binding	binds	binds	–	–	–	–	endogenous VPS18 (protein, UniProt Q9P253 1-973) MASILDEYENSLSRSAVLQPGCPSVGIPHSGYVNAQLEKEVPIFTKQRIDFTPSERITSLVVSSNQLCMSLGKDTLLRIDLGKANEPNHVELGRKDDAKVHKMFLDHTGSHLLIALSSTEVLYVNRNGQKVRPLARWKGQLVESVGWNKALGTESSTGPILVGTAQGHIFEAELSASEGGLFGPAPDLYFRPLYVLNEEGGPAPVCSLEAERGPDGRSFVIATTRQRLFQFIGRAAEGAEAQGFSGLFAAYTDHPPPFREFPSNLGYSELAFYTPKLRSAPRAFAWMMGDGVLYGALDCGRPDSLLSEERVWEYPEGVGPGASPPLAIVLTQFHFLLLLADRVEAVCTLTGQVVLRDHFLEKFGPLKHMVKDSSTGQLWAYTERAVFRYHVQREARDVWRTYLDMNRFDLAKEYCRERPDCLDTVLAREADFCFRQRRYLESARCYALTQSYFEEIALKFLEARQEEALAEFLQRKLASLKPAERTQATLLTTWLTELYLSRLGALQGDPEALTLYRETKECFRTFLSSPRHKEWLFASRASIHELLASHGDTEHMVYFAVIMQDYERVVAYHCQHEAYEEALAVLARHRDPQLFYKFSPILIRHIPRQLVDAWIEMGSRLDARQLIPALVNYSQGGEVQQVSQAIRYMEFCVNVLGETEQAIHNYLLSLYARGRPDSLLAYLEQAGASPHRVHYDLKYALRLCAEHGHHRACVHVYKVLELYEEAVDLALQVDVDLAKQCADLPEEDEELRKKLWLKIARHVVQEEEDVQTAMACLASCPLLKIEDVLPFFPDFVTIDHFKEAICSSLKAYNHHIQELQREMEEATASAQRIRRDLQELRGRYGTVEPQDKCATCDFPLLNRPFYLFLCGHMFHADCLLQAVRPGLPAYKQARLEELQRKLGAAPPPAKGSARAKEAEGGAATAGPSREQLKADLDELVAAECVYCGELMIRSIDRPFIDPQRYEEEQLSWL
–	–	–	–	binds	binds weakly	binds	binds	endogenous VPS41 (protein, UniProt P49754 1-854) MAEAEEQETGSLEESTDESEEEESEEEPKLKYERLSNGVTEILQKDAASCMTVHDKFLALGTHYGKVYLLDVQGNITQKFDVSPVKINQISLDESGEHMGVCSEDGKVQVFGLYSGEEFHETFDCPIKIIAVHPHFVRSSCKQFVTGGKKLLLFERSWMNRWKSAVLHEGEGNIRSVKWRGHLIAWANNMGVKIFDIISKQRITNVPRDDISLRPDMYPCSLCWKDNVTLIIGWGTSVKVCSVKERHASEMRDLPSRYVEIVSQFETEFYISGLAPLCDQLVVLSYVKEISEKTEREYCARPRLDIIQPLSETCEEISSDALTVRGFQENECRDYHLEYSEGESLFYIVSPRDVVVAKERDQDDHIDWLLEKKKYEEALMAAEISQKNIKRHKILDIGLAYINHLVERGDYDIAARKCQKILGKNAALWEYEVYKFKEIGQLKAISPYLPRGDPVLKPLIYEMILHEFLESDYEGFATLIREWPGDLYNNSVIVQAVRDHLKKDSQNKTLLKTLAELYTYDKNYGNALEIYLTLRHKDVFQLIHKHNLFSSIKDKIVLLMDFDSEKAVDMLLDNEDKISIKKVVEELEDRPELQHVYLHKLFKRDHHKGQRYHEKQISLYAEYDRPNLLPFLRDSTHCPLEKALEICQQRNFVEETVYLLSRMGNSRSALKMIMEELHDVDKAIEFAKEQDDGELWEDLILYSIDKPPFITGLLNNIGTHVDPILLIHRIKEGMEIPNLRDSLVKILQDYNLQILLREGCKKILVADSLSLLKKMHRTQMKGVLVDEENICESCLSPILPSDAAKPFSVVVFHCRHMFHKECLPMPSMNSAAQFCNICSAKNRGPGSAILEMKK
